Assay results published in US20240124575A1 (SIMCERE ZAIMING PHARMACEUTICAL, published 2024).

T1: murine CD33-His protein (murine, UniProt Q63994 18-240, limits assumed)
T1 construct: also called murine CD33 protein
T1 sequence (looked up): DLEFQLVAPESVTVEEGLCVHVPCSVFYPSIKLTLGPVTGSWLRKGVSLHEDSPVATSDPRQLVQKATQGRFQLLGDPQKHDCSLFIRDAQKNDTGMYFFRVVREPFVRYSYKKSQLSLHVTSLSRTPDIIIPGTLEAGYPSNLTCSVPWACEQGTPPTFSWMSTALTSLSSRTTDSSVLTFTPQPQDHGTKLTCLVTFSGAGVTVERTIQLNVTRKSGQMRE

B1: S006-NB146-1 (Fc fusion)
chain: EVQVVESGGGLVQAGGSLTLSCAASGNIENIQVMGWYRQAPGSQRALVAQINLSGLESTNYLDSVKERFTISRDYTKNAVYLRMNRLEPEDTAVYYCNARSYYGQYDYWGQGTQVTVSS[letters of human IgG1 Fc with changes left out]
notes: also called VHH-Fc
B2: S006-NB147-225 (Fc fusion)
chain: EVQVVESGGGSVQPGGSLRLSCVASGFTFSNYAMSWVRQTPKKGLEWVAEINSGGDNTYYAYFVKGRFTISRDNAKNTLYLQMNSLKPEDTGTYYCAREEENAGTILQGQGTQVTVSS[letters of human IgG1 Fc with changes left out]
notes: also called VHH-Fc
B3: S006-NB146-17 (Fc fusion)
chain: QVQLVESGGGLVQSGGSLRLSCAASGSIFTSDDMDYAMGWYRQASGKQREWVATITSDEDTNYGDSVKGRFTISRDSAKNTAFLQMNTLKPEDTAVYYCFANVRSDRSSLYRNYWGQGTQVTVSS[letters of human IgG1 Fc with changes left out]
notes: also called VHH-Fc
B4: S006-NB146-60 (Fc fusion)
chain: EVQLVESGGGLVQAGGSLRLSCVASRSTSSLSLMSWHRQAPGEQRELVASITSGGKANYVDSVKDRFIMTRDDAKNTVYLQMNSLKPEDTAVYYCHAYDRAGTASGFGAAWGQGTQVTVSS[letters of human IgG1 Fc with changes left out]
notes: also called VHH-Fc
B5: S006-NB146-60-H3 (Fc fusion)
chain: EVQLVESGGGLVQPGGSLRLSCAASRSTSSLSLMSWHRQAPGKQRELVASITSGGKANYVDSVKGRFTISRDNAKNSLYLQMNSLRAEDTAVYYCHAYDRAGTASGFGAAWGQGTMVTVSS[letters of human IgG1 Fc with changes left out]
B6: S006-NB146-60-H6 (Fc fusion)
chain: EVQLVESGGGLVQPGGSLRLSCAASRSTSSLSLMSWHRQAPGKQRELVASITSGGKANYVDSVKGRFTISRNDAKNSLYLQMNSLRAEDTAVYYCHAYDRAGTASGFGAAWGQGTMVTVSS[letters of human IgG1 Fc with changes left out]
B7: S006-NB146-60-H4 (Fc fusion)
chain: EVQLVESGGGLVQPGGSLRLSCAASRSTSSLSLMSWHRQAPGKQRELVASITSGGKANYVDSVKGRFTMSRDNAKNSVYLQMNSLRAEDTAVYYCHAYDRAGTASGFGAAWGQGTMVTVSS[letters of human IgG1 Fc with changes left out]
B8: S006-NB146-60-H7 (Fc fusion)
chain: EVQLVESGGGLVQPGGSLRLSCAASRSTSSLSLMSWHRQAPGKQRELVASITSGGKANYVDSVKGRFTISRDNAKNSLYLQMNSLKPEDTAVYYCHAYDRAGTASGFGAAWGQGTMVTVSS[letters of human IgG1 Fc with changes left out]
B9: S006-NB146-60-H5 (Fc fusion)
chain: EVQLVESGGGLVQPGGSLRLSCAASRSTSSLSLMSWHRQAPGKQRELVASITSGGKANYVDSVKGRFTISRDDAKNSLYLQMNSLRAEDTAVYYCHAYDRAGTASGFGAAWGQGTMVTVSS[letters of human IgG1 Fc with changes left out]
B10: S006-NB147-225-H5 (Fc fusion)
chain: EVQVVESGGGLVQPGGSLRLSCAASGFTFSNYAMSWVRQAPGKGLEWVAEINSGGDNTYYAYFVKGRFTISRDNAKNSLYLQMNSLKPEDTATYYCAREEENAGTILQGQGTQVTVSS[letters of human IgG1 Fc with changes left out]
B11: S006-NB146-17-H2 (Fc fusion)
chain: EVQLVESGGGLVQPGGSLRLSCAASGSIFTSDDMDYAMGWYRQAPGKQREWVATITSDEDTNYVDSVKGRFTISRDNAKNSLYLQMNSLRAEDTAVYYCFANVRSDRSSLYRNYWGQGTMVTVSS[letters of human IgG1 Fc with changes left out]
B12: S006-NB146-17-H3 (Fc fusion)
chain: EVQLVESGGGLVQPGGSLRLSCAASGSIFTSDDMDYAMGWYRQAPGKQREWVATITSDEDTNYVDSVKGRFTISRDNAKNSAYLQMNSLRAEDTAVYYCFANVRSDRSSLYRNYWGQGTMVTVSS[letters of human IgG1 Fc with changes left out]
B13: S006-NB146-17-H1 (Fc fusion)
chain: EVQLVESGGGLVQPGGSLRLSCAASGSIFTSDDMDYAMGWYRQAPGKQREWVATITSDEDTYYVDSVKGRFTISRDNAKNSLYLQMNSLRAEDTAVYYCFANVRSDRSSLYRNYWGQGTMVTVSS[letters of human IgG1 Fc with changes left out]
B14: S006-NB146-17-H5 (Fc fusion)
chain: EVQLVESGGGLVQPGGSLRLSCAASGSIFTSQDMDYAMGWYRQAPGKQREWVATITSDEDTNYVDSVKGRFTISRDNAKNSAYLQMNSLRAEDTAVYYCFANVRSDRSSLYRNYWGQGTMVTVSS[letters of human IgG1 Fc with changes left out]
B15: S006-NB146-17-H7 (Fc fusion)
chain: EVQLVESGGGLVQPGGSLRLSCAASGSIFTSDDMDYAMGWYRQAPGKQREWVATITSDEDTNYVDSVKGRFTISRDSAKNSAYLQMNSLRAEDTAVYYCFANVRSDRSSLYRNYWGQGTMVTVSS[letters of human IgG1 Fc with changes left out]
B16: S006-NB146-17-H6 (Fc fusion)
chain: EVQLVESGGGLVQPGGSLRLSCAASGSIFTSDDMDYAMGWYRQAPGKQREWVATITSDEDTNYGDSVKGRFTISRDNAKNSAYLQMNSLRAEDTAVYYCFANVRSDRSSLYRNYWGQGTMVTVSS[letters of human IgG1 Fc with changes left out]
B17: S006-NB146-17-H9 (Fc fusion)
chain: EVQLVESGGGLVQPGGSLRLSCAASGSIFTSDDMDYAMGWYRQAPGKQREWVATITSDEDTNYVDSVKGRFTISRDNAKNSAYLQMNSLKPEDTAVYYCFANVRSDRSSLYRNYWGQGTMVTVSS[letters of human IgG1 Fc with changes left out]
B18: S006-NB146-17-H4 (Fc fusion)
chain: QVQLVESGGGLVQPGGSLRLSCAASGSIFTSDDMDYAMGWYRQAPGKQREWVATITSDEDTNYVDSVKGRFTISRDNAKNSAYLQMNSLRAEDTAVYYCFANVRSDRSSLYRNYWGQGTMVTVSS[letters of human IgG1 Fc with changes left out]
B19: S006-NB146-17-H8 (Fc fusion)
chain: EVQLVESGGGLVQPGGSLRLSCAASGSIFTSNDMDYAMGWYRQAPGKQREWVATITSDEDTNYVDSVKGRFTISRDSAKNSAYLQMNSLRAEDTAVYYCFANVRSDRSSLYRNYWGQGTMVTVSS[letters of human IgG1 Fc with changes left out]
B20: S006-NB146-132-aH2 (Fc fusion)
chain: EVQLVESGGGLVQPGGSLRLSCAASGGTFVINAAWYRQAPGKQRELVASISYGGSTNYADRVAGRFTISRDNAKNSLYLQMNSLRAEDTAVYYCRLDPGLALNNRPLYYWGQGTMVTVSS[letters of human IgG1 Fc with changes left out]
B21: S006-NB146-132-aH5 (Fc fusion)
chain: EVQLVESGGGLVQPGGSLRLSCAASGGTFVINAAWYRQAPGKQRELVASISYGGSTNYADRVAGRFTISRDNAKNSVYLQMNSLRAEDTAVYYCRLDPGLALNNRPLYYWGQGTMVTVSS[letters of human IgG1 Fc with changes left out]
B22: S006-NB146-132-aH3 (Fc fusion)
chain: QVQLVESGGGLVQPGGSLRLSCAASGGTFVINAAWYRQAPGKQRELVASISYGGSTNYADRVAGRFTISRDNAKNSLYLQMNSLRAEDTAVYYCRLDPGLALNNRPLYYWGQGTMVTVSS[letters of human IgG1 Fc with changes left out]
B23: S006-NB146-132-aH1 (Fc fusion)
chain: EVQLVESGGGLVQPGGSLRLSCAASGFTFSINAAWYRQAPGKQRELVASISYGGSTNYADRVAGRFTISRDNAKNSLYLQMNSLRAEDTAVYYCRLDPGLALNNRPLYYWGQGTMVTVSS[letters of human IgG1 Fc with changes left out]

Molecular target: T1, murine CD33-His protein
Assay: ELISA, antigen coated

| OD450 at 0.0001 nM [OD450] | OD450 at 0.001 nM [OD450] | OD450 at 0.01 nM [OD450] | OD450 at 0.1 nM [OD450] | OD450 at 1 nM [OD450] | OD450 at 10 nM [OD450] | OD450 at 100 nM [OD450] | Binder |
| --- | --- | --- | --- | --- | --- | --- | --- |
| 0.07 | 0.07 | 0.07 | 0.06 | 0.06 | 0.06 | 0.08 | B1 |
| 0.06 | 0.06 | 0.11 | 0.05 | 0.06 | 0.06 | 0.06 | B2 |
| 0.06 | 0.06 | 0.06 | 0.07 | 0.06 | 0.06 | 0.07 | B3 |
| 0.06 | 0.07 | 0.06 | 0.06 | 0.06 | 0.07 | 0.07 | B4 |

Molecular target: T2, human CD33-his protein (human, UniProt P20138 18-259)
T2 construct: range 18-259; bought protein; also called hCD33-his; recombinant human CD33-his; not shown: His tag
Assay: SPR (Biacore), antibody captured on Protein A chip, human CD33-his analyte

T2 sequence (P20138 18-259 limits assumed): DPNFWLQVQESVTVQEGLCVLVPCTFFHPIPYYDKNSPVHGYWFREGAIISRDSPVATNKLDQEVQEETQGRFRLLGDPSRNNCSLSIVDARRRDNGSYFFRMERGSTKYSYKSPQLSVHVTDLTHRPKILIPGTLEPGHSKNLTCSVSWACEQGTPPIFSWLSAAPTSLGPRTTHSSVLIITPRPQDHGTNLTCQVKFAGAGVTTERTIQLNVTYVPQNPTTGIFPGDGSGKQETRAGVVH

| Kd [nM] | koff [s⁻¹] | kon [M⁻¹ s⁻¹] | Binder |
| --- | --- | --- | --- |
| 27.2 | 0.000507 | 18600 | B5 |
| 69.8 | 0.000815 | 11700 | B6 |
| 3.49 | 0.000151 | 43200 | B7 |
| 22.9 | 0.000425 | 18500 | B8 |
| 55.3 | 0.000817 | 14800 | B9 |
| 13.9 | 0.000498 | 35900 | B10 |
| 2.11 | 0.000103 | 48700 | B11 |
| 1.33 | 9.69e-05 | 73000 | B12 |
| 161 | 0.00376 | 23400 | B13 |
| 0.92 | 7.11e-05 | 77300 | B14 |
| 1.06 | 7.6e-05 | 71600 | B15 |
| 0.598 | 4.47e-05 | 74900 | B16 |
| 1.21 | 8.86e-05 | 73200 | B17 |
| 0.853 | 6.68e-05 | 78300 | B18 |
| 1.07 | 7.69e-05 | 71700 | B19 |
| 0.521 | 0.00028 | 537000 | B20 |
| 0.341 | 0.000234 | 688000 | B21 |
| 0.617 | 0.000294 | 477000 | B22 |
| 4.5 | 0.00142 | 317000 | B23 |
